From PubChem BioAssay AID1508624 (National Center for Advancing Translational Sciences (NCATS), 2021)
Out of some 48,000 compounds screened, about 120 (0.25%) were called active. Another 4% or so got no clear call; they are omitted. Calls come from the whole dose curve; as a rule, active = well fitted activation curve with a large enough effect; inconclusive = small, poorly fitted or top-dose-only effect, or another doubt; inactive = no such curve, though single readings can be large or run the other way. This is one part of the list.

Test: Primary qHTS for Identification of Small Molecule Activators of Huntingtin-Antisense Promoter Activity; note: nearly all actives have a fitted effect of over 55% in size
Conditions: HEK293 HTT-AS promoter firefly luciferase reporter, 24 h; series mostly up to 57.5 µM; activity change, positive = activation: at the top concentration
In short: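 Firefly luciferase readout (Dual-Glo, 10 min RT) after 24 h, 37 °C compound exposure (final up to 57.5 uM) of HEK293 reporter cells cultured 24 h beforehand; PTC124 at 50 uM final as control inhibitor; activity scaled vehicle 0%, zero RLU -100%.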
Potency is the fitted concentration of half-maximal effect.

Row | SMILES | activity change, positive = activation | Potency
1 | COc1ccc(-c2nnc(C3CCN(S(=O)(=O)c4ccc(C)c(C)c4)CC3)o2)cc1 | inactive: -29.9% | –
2 | CC(O)CNc1nc2c(c(=O)n(Cc3ccc(Cl)cc3)c(=O)n2C)n1C (stereo unspecified) | inactive: -12.7% | –
3 | CCOC(=O)c1ccc(NC(=O)c2ccc(=O)n(Cc3cccc(C)c3)c2)cc1 | inactive: -42.2% | –
4 | CCOCCCN(Cc1ccco1)S(=O)(=O)c1cc2c(cc1C)NC(=O)CO2 | inactive: -16.4% | –
5 | COc1ccc(-n2ncc(C(=O)Nc3cccc(C(F)(F)F)c3)c2C2CCN(C(=O)OC(C)(C)C)CC2)cc1 | inactive: -25.6% | –
6 | COc1ccc(N2Cc3cccc(C(=O)Nc4ccc(F)cc4)c3C2=O)cc1 | inactive: -17.9% | –
7 | CCN1CCCC1CN (stereo unspecified) | inactive: -4.92% | –
8 | O=C(Nc1c(C(=O)N2CCN(c3ccccc3)CC2)oc2ccccc12)c1ccco1 | inactive: -11.4% | –
9 | CC(C)C(=O)NCC(c1ccc2c(c1)OCO2)N1CCN(c2ccccc2)CC1 (stereo unspecified) | inactive: -19.6% | –
10 | Cc1c(C(=O)NCCc2ccc(Cl)cc2)sc2nc3n(c(=O)c12)CCCC3 | inactive: -1.33% | –
11 | Cc1ccccc1CN1c2ccccc2-c2nc(SCC(=O)NCc3ccccc3)ncc2S1(=O)=O | inactive: -8.51% | –
12 | CCN(CC)c1ccc(NC(=O)c2sc3nc4c(cc3c2N)CN(C)CC4)cc1 | inactive: -11.2% | –
13 | CCn1c(C(=O)N2CCCC(C(=O)N3CCN(c4cc(C)ccc4C)CC3)C2)cc2sccc21 (stereo unspecified) | inactive: -42.4% | –
14 | COc1cc(OC)c(OC)cc1CNc1sc2c(c1C(=O)Nc1ccccc1OC)CCC2 | inactive: -14.9% | –
15 | O=C(Nc1ccc2nc(SCC(=O)N3CCc4ccccc43)sc2c1)c1cccc(Cl)c1 | inactive: -8.04% | –
16 | CN(C(=O)CCS(=O)(=O)c1cc2c(cc1Cl)NC(=O)CO2)C1CCCCC1 | inactive: -10% | –
17 | Cc1nncn1-c1ccc(C(=O)Nc2cc(F)ccc2F)cc1 | inactive: 1.49% | –
18 | Cc1ccc(CCNC(=O)CCS(=O)(=O)c2cc3c(cc2C)NC(=O)CO3)cc1 | inactive: -16% | –
19 | COc1ccc(C)cc1NS(=O)(=O)c1cc2c3c(c1)CC(=O)N3CCC2 | inactive: 0.932% | –
20 | COc1ccc(NC(=O)CSc2nc3nc(C)c(Cc4ccccc4Cl)c(C)n3n2)cc1OC | inactive: -13.3% | –
21 | CCn1c(=N)c(C(=O)NC2CCCCC2)cc2c(=O)n3cc(C)ccc3nc21 | inactive: -5.59% | –
22 | COc1ccc(-n2c(=O)c3ccccc3n(CC(=O)NCCc3ccc(OC)c(OC)c3)c2=O)cc1 | inactive: -11.4% | –
23 | Cc1ccccc1CCNC(=O)c1cc2cc(S(=O)(=O)N3CCCCC3)ccc2n1C | inactive: -36.2% | –
24 | COc1ccc(NC(=O)c2cc3c(=O)n(Cc4cccnc4)ccc3nc2C)cc1OC | inactive: -6.42% | –

Row | SMILES | activity change, positive = activation | Potency
25 | COc1ccc(Cl)cc1NC(=O)CCCN1C(=O)C(c2ccccc2)Oc2cccnc21 (stereo unspecified) | inactive: -30.4% | –
26 | COc1cc2c(cc1OC)C(COc1cc(C)cc(C)c1)N(C(=O)COc1ccccc1)CC2 (stereo unspecified) | inactive: -28.7% | –
27 | CCOc1ccc(NC(=O)C2CCCN(S(=O)(=O)c3ccc4[nH]c(=O)ccc4c3)C2)cc1 (stereo unspecified) | inactive: -22.1% | –
28 | Cc1ccc(NC(=O)C(=O)c2cc(C)n(-c3ccc(F)cc3)c2C)cc1C | inactive: 1.4% | –
29 | COc1cccc(-n2ccn(CC(=O)c3ccc(F)cc3)c(=O)c2=O)c1 | inactive: -3.28% | –
30 | COc1ccccc1N1CCN(C(=O)CSc2nc3ccccc3nc2Cc2ccccc2)CC1 | inactive: -8.96% | –
31 | O=C(O)C=Cc1ccc(Cn2ccnc2)cc1 | inactive: -1.66% | –
32 | COc1ccc(CNC(=O)c2cc(Nc3ccc(C)cc3C)nc3ccccc23)cc1 | inactive: -4.76% | –
33 | CCCN(CCC)S(=O)(=O)c1ccc2c(c1)N(CC(=O)NC(C)c1ccccc1)C(=O)CS2 (stereo unspecified) | inactive: -30.9% | –
34 | CCN(c1cccc(C)c1)S(=O)(=O)c1nnc(NC(=O)c2ccccc2Cl)s1 | inactive: -35.1% | –
35 | COc1ccccc1N1CCN(C(=O)c2cc(-c3ccc(F)cc3)on2)CC1 | inactive: -11.3% | –
36 | CC(=O)c1ccc(N2C(=O)N(CC(=O)c3ccc(C)cc3)c3ccccc3S2(=O)=O)cc1 | inactive: -25.1% | –
37 | Cc1ccc2nc(CNC(=O)c3ccccc3)[nH]c2c1 | – | active: 4.47 µM
38 | Cc1cccc(-c2noc(CSc3nc(-c4ccc(F)cc4)cc(=O)[nH]3)n2)c1 | inactive: 4.62% | –
39 | COc1ccc(CCNC(=O)C(=O)NCC(c2ccc3c(c2)OCO3)N2CCOCC2)cc1OC (stereo unspecified) | inactive: -10.2% | –
40 | Cc1cccn2c(=O)c(C(=O)NCCc3ccccc3)c(O)nc12 | inactive: 23.8% | –
41 | N#Cc1cc(NC(=O)Nc2nnc(-c3ccncc3)s2)ccc1-c1cn[nH]c1 | inactive: -9.47% | –
42 | CCOc1ccc(NC(=O)c2oc3ccccc3c2NC(=O)c2c(F)cccc2F)cc1 | inactive: -2.61% | –
43 | O=C(Nc1nnc(S(=O)(=O)N2CCCc3ccccc32)s1)c1ccccc1 | inactive: -21.2% | –
44 | COC(=O)c1cnn2c(C)c(Cc3c(C)cc(C)cc3C)c(C)nc12 | inactive: -14.6% | –
45 | COc1ccc(NC(=O)CCn2c(=O)c3cccn3c3ccccc32)c(OC)c1 | inactive: -8.23% | –
46 | CCC1CN(C(=O)Nc2cccc3c2CCCC3)c2ccccc2O1 (stereo unspecified) | inactive: -34.1% | –
47 | Cc1ccc2c(=O)cc(C(=O)Nc3ccc(S(=O)(=O)N(C)Cc4ccccc4)cc3)oc2c1 | inactive: -22.5% | –
48 | CCN(CC)S(=O)(=O)c1ccc2c(c1)c(=O)c(C(=O)N1CCN(c3cccc(C)c3)C(C)C1)cn2C (stereo unspecified) | inactive: -0.221% | –

Row | SMILES | activity change, positive = activation | Potency
49 | Cc1ccc(CNC(=O)CN(c2ccc(C)cc2)S(=O)(=O)c2c(C)nn(C)c2C)cc1 | inactive: -17% | –
50 | COc1ccccc1-c1cc2nc(C)c(CCC(=O)NCc3cccc(Cl)c3)c(C)n2n1 | inactive: -80% | –
51 | CC(=O)c1ccc(NC(=O)CN(C)S(=O)(=O)c2cccc3nsnc23)cc1 | inactive: 19.3% | –
52 | CCCCn1c(C(C)NC(=O)c2ccccc2)nc2ccccc21 (stereo unspecified) | inactive: -23.5% | –
53 | COc1ccc(N2CC(NC(=O)C3CC3)CC2=O)cc1OC (stereo unspecified) | inactive: 4.08% | –
54 | CCC(Sc1nc2ccccc2c2nc(-c3ccccc3)nn12)C(=O)Nc1cccc(OC)c1 (stereo unspecified) | inactive: -5.85% | –
55 | COC(=O)c1c(NC(=O)CS(=O)(=O)c2ccc(C)cc2)sc2c1CCCC2 | inactive: -21.7% | –
56 | Cc1ccc2oc(=O)c3cnn(CC(=O)N4CCN(c5ccccc5)CC4)c3c2c1 | inactive: -11% | –
57 | Cc1c(Cl)cccc1NC(=O)CCN1C(=O)c2ccccc2Sc2ncccc21 | inactive: -22.3% | –
58 | Cc1cc(NC(=O)CCNS(=O)(=O)c2ccc3c(c2)oc(=O)n3C)ccc1Br | inactive: -17.7% | –
59 | CCN(C(=O)Cn1nnc2sc(-c3ccccc3)cc2c1=O)c1cccc(C)c1 | inactive: -17% | –
60 | O=C(Nc1cccc(Cl)c1)c1ccc(F)c(S(=O)(=O)N2CCC3(CC2)OCCO3)c1 | inactive: -22.9% | –
61 | CCC(C)NC(=O)CSc1nc2n[nH]c(C)c2c(=N)n1-c1ccc(C)c(Cl)c1 (stereo unspecified) | inactive: -25.4% | –
62 | O=C(Nc1ccc(F)cc1F)c1cc2nc(-c3ccco3)cc(C(F)(F)Cl)n2n1 | inactive: 0.474% | –
63 | CCc1nn(CC(=O)NCc2ccccc2Cl)c(=O)c2cccn12 | inactive: -0.941% | –
64 | COc1ccc(CCNC(=O)c2ccc3c(c2)N(Cc2ccc(F)cc2)CCS3)cc1OC | inactive: -30.9% | –
65 | Cc1nc(-c2ccc(S(=O)(=O)Nc3ccc(C)c(N(C)C)c3)cc2)co1 | inactive: -47.4% | –
66 | Cc1cc(C)cc(NC(=O)c2cccc3c2C(=O)N(C2CCCCC2)C3)c1 | inactive: -2.65% | –
67 | COc1ccccc1-n1c(-c2ccc(C)cc2)cn2c3c(=O)n(C)c(=O)n(C)c3nc12 | inactive: -17.2% | –
68 | Cc1nc(SCC(=O)Nc2ccccc2F)[nH]c(=O)c1Cc1ccccc1 | inactive: -8.05% | –
69 | O=S(=O)(c1ccccc1)c1nc(-c2cccs2)oc1SCc1ccc(F)cc1 | inactive: 11.1% | –
70 | COc1ccc(S(=O)(=O)c2cc(NS(=O)(=O)c3ccc(Cl)cc3)c(C)c(C)c2O)cc1 | inactive: -24.2% | –
71 | Cc1c(C(=O)Nc2ccc(F)cc2)sc2nc[nH]c(=O)c12 | inactive: 19.9% | –
72 | CCc1ccccc1NC(=O)c1cc(S(=O)(=O)N2CCCc3ccccc32)ccc1F | inactive: -33.9% | –

Row | SMILES | activity change, positive = activation | Potency
73 | CC(C)CCn1c(=O)c2sccc2n2c(CCCC(=O)NCc3ccc(F)cc3)nnc12 | inactive: -10.9% | –
74 | Fc1cccc(-n2ncc3c2ncn2nc(-c4ccccc4Cl)nc32)c1 | inactive: 1.67% | –
75 | O=C(Cn1c(=O)c2cccn2c2ccc(F)cc21)N1CCN(c2ccc(F)cc2)CC1 | inactive: -20.3% | –
76 | Cc1cccc(N2CCN(C(=O)CCn3c(=O)c4cccn4c4cccnc43)CC2)c1C | inactive: -16.7% | –
77 | O=C(COc1ccccc1)Nc1cccc(-c2cn3cccnc3n2)c1 | inactive: 14.5% | –
78 | CCOc1ccc(N(C)C(CNS(=O)(=O)c2ccccc2)c2ccccc2)cc1 (stereo unspecified) | inactive: -20.6% | –
79 | Cc1ccn2c(=O)c(C(=O)NC(C)c3ccccc3)c(O)nc2c1 (stereo unspecified) | inactive: -2.84% | –
80 | CCOc1ccccc1CNC(=O)c1cccn1-c1nnc(N2CCCCC2)s1 | inactive: -9.04% | –
81 | COc1ccccc1N1CCN(C(=O)c2cc(-c3ccccc3O)on2)CC1 | inactive: 9.72% [at 11.5 µM, percent change from vehicle, -100% = no light] | –
82 | N#Cc1cccc(NC(=O)c2cc3c(s2)-c2ccc(Cl)cc2SC3)c1 | inactive: -46.1% | –
83 | Nc1ccc2cc3ccc(N)cc3nc2c1 | inactive: -44% | –
84 | CCOc1ccc(C(=O)Nc2cc(-c3nc4ccccc4s3)ccc2OC)cc1 | inactive: -26.6% | –
85 | CCOc1ccc(S(=O)(=O)c2cn(Cc3cc(C)ccc3C)c3ccc(OCC)cc3c2=O)cc1 | inactive: -16.1% | –
86 | CCOC(=O)Cn1c(=O)oc2cc(S(=O)(=O)N3CCN(c4ccc(C(C)=O)cc4)CC3)ccc21 | inactive: -28.1% | –
87 | COc1cccc(Nc2nc3cc(Cl)c(Cl)cc3nc2-n2nc(C)cc2C)c1 | inactive: -11.9% | –
88 | COc1ccc(NC(=O)Cn2nc(C)c3nn(-c4ccc(Cl)cc4)c(C)c3c2=O)cc1 | inactive: -26.4% | –
89 | CCCOC(=O)c1ccc(Cn2nnc3sc4c(c3c2=O)CCC(C)C4)cc1 (stereo unspecified) | inactive: -23.3% | –
90 | CCOc1ccc(NC(=O)c2cc(S(=O)(=O)N3CCOCC3)ccc2F)cc1 | inactive: -17.3% | –
91 | COc1ccccc1CNC(=O)c1cnc(N2CCCC2)nc1C | inactive: -7.44% | –
92 | CC1CCN(c2oc(/C=C/c3ccc(F)cc3)nc2C#N)CC1 | inactive: -5.3% | –
93 | CCc1c(C)sc2c1CCN(C(=O)Nc1ccc(F)c(Cl)c1)C2c1ccc(F)cc1 (stereo unspecified) | inactive: -27.9% | –
94 | CCOc1ccc(-c2nc(Cn3c(=O)cc(C)c4c(C)nn(-c5ccc(C)cc5)c43)c(C)o2)cc1 | inactive: 1.36% | –
95 | COc1ccccc1NC(=O)C1=C(C)Nc2nc(SCc3ccccc3)nn2C1c1cccnc1 (stereo unspecified) | inactive: -17.6% | –
96 | O=C(Nc1ccccc1)C1CCN(S(=O)(=O)c2ccc3[nH]c4c(c3c2)CCCCC4)CC1 | inactive: -32.5% | –
